Results on one molecule are retold here after patent US6495376 (dated 2002).

Assay [1] addresses T1, tau present in AD brain extracts (human, UniProt P10636-8 2-441, limits assumed, phosphorylated, pT231 among the sites (detected by CP9)).
T1 construct: also called AD-specific tau; AD tau
The assay is described as follows: GST pulldown, CP27 immunoblot.

Assay [2] deals with T2, tau in paired helical filaments (PHFs) purified from AD brains (human, UniProt P10636-8 2-441, limits assumed, hyperphosphorylated, pT231 among the sites (detected by CP9)).
T2 construct: also called neurofibrillary tangles
Nature of the assay: GST pulldown, CP27 immunoblot. A general note: A western blot detects proteins with antibodies after separation by electrophoresis.

B1: GST (other)
chain: not shown
notes: Control protein; also called control GST
With B1, the binding result in assay [1] and in assay [2] was “no binding” in each case.
